Assay results published in PubChem BioAssay AID1508624 (National Center for Advancing Translational Sciences (NCATS), 2021).
Among all 48,000 compounds or so, about 120 (0.25%) were called active. Not shown: some 4% with an inconclusive outcome. Calls come from the whole dose curve; as a rule, active = well fitted activation curve with a large enough effect; inconclusive = small, poorly fitted or top-dose-only effect, or another doubt; inactive = no such curve, though single readings can be large or run the other way. This is one part of the list.

Assay: Primary qHTS for Identification of Small Molecule Activators of Huntingtin-Antisense Promoter Activity; note: nearly all actives have a fitted effect of over 55% in size
Settings: HEK293 HTT-AS promoter firefly luciferase reporter, 24 h; series mostly up to 57.5 µM; activity change, positive = activation: at the top concentration
In short: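 Luminescence was read after Dual-Glo reagent and a 10 min room-temperature incubation. Values were normalized to vehicle (0% activity) and zero RLU (-100% activity). Reporter HEK293 cells had been exposed to compounds (up to 57.5 uM final) for 24 h.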

Activity change, positive = activation, inactive:
Cc1ccc2onc(CC(=O)Nc3cccc(C(F)(F)F)c3)c2c1 -32.3%
O=C(Nc1ccccc1)N(Cc1cccs1)c1ccc(F)cc1 -16.6%
CCOC(=O)CSc1nc2cc3c(cc2c(=O)n1CCCC(=O)NCCc1ccc(OC)c(OC)c1)OCO3 -10.5%
C[n+]1ccccc1/C=N/O 0.354%
COc1cccc(CNC(=O)c2cc(S(=O)(=O)N3CCCCCC3)cn2C)c1 -28.5%
CCOC(=O)c1sc(N2C(=O)c3oc4ccc(C)cc4c(=O)c3C2c2ccccc2F)nc1C (stereo not drawn) -8.82%
CCc1cccc(NS(=O)(=O)c2ccc3c(c2)n(C)c(=O)c(=O)n3C)c1 -9.76%
CCOC(=O)c1c(NC(=O)CSc2cn(CCNC(=O)c3ccc(OC)c(OC)c3)c3ccccc23)sc2c1CCCC2 -26.6%
Cc1ccc(CNC(=O)CCCn2nc(C)c3c(C)n(-c4ccccc4)nc3c2=O)cc1 -3.58%
Nc1ccc(/C=C/c2ccc(N)cc2S(=O)(=O)O)c(S(=O)(=O)O)c1 -0.0528% [at 0.74 µM, percent change from vehicle, -100% = no light]
Cc1cccc(Nc2ccccc2C(=O)O)c1C 2.66%
CCCCC(=O)OCc1cc(=O)n2nc(C3CCCCC3)sc2n1 -11.7%
CCC1CN(C(=O)Nc2cc(C)ccc2OC)c2cc(Cl)ccc2O1 (stereo not drawn) -22.1%
COC(=O)c1ccc(NC(=O)CC2Nc3cc(C)c(C)cc3NC2=O)cc1 (stereo not drawn) -75.7%
COc1ccccc1NCc1cccn1-c1nnc(N2CCCCCC2)s1 -52.1%
Cc1cc(C)n(-c2nc3ccccc3nc2Nc2ccc(Cl)c(Cl)c2)n1 -9.49%
Cc1cc(C)cc(OCC(=O)NC(Cc2c[nH]c3ccccc23)C(=O)O)c1 (stereo not drawn) -14.1%
CCOc1ccc(S(=O)(=O)Nc2ccc3oc(C)c(C(=O)OC(C)C)c3c2)cc1 -6.95%
Cc1cccc(OCC(=O)Nc2c(C(=O)N3CCN(c4ccccc4F)CC3)oc3ccccc23)c1 -10.4%
CCOc1cc(N)c(Cl)cc1C(=O)NCC1CN(Cc2ccc(F)cc2)CCO1 (stereo not drawn)
Cc1ccc(NC(=O)N2CC3CCCN3c3ccccc32)c(C)c1 (stereo not drawn) -2.9%
Fc1ccc(-n2ncc3c(N4CCCCCC4)ncnc32)cc1 -49.5%
Cc1ccc(-c2cc(C(=O)N(Cc3ccc(C(C)(C)C)cc3)Cc3ccco3)no2)cc1 6.05%
COc1ccc(NC(=O)c2ccco2)cc1NC(=O)COc1ccc(Cl)c(C)c1 -32%
Cc1cc(N2CCN(c3cccc(C(F)(F)F)c3)CC2)n2nc(-c3ccccc3)nc2n1 5.87%
CCc1cccc(C)c1NC(=O)CCn1c(=O)c2cccn2c2ccccc21 -12.4%
CC(C)C(=O)NCC1(N(C)C)CCCCC1 13.5%
Cc1ccc(NS(=O)(=O)c2cc3[nH]c(=O)c(=O)[nH]c3cc2C)cc1Cl -13%
CCOc1ccc(C(=O)Nc2c(C(=O)N3CCN(c4ccccc4F)CC3)oc3ccccc23)cc1 38.1%
CCOc1ccc(N2C(=O)c3n[nH]c(-c4cccs4)c3C2c2cccc(F)c2)cc1 (stereo not drawn) -21.9%
CCOC(=O)c1ccc(-n2c(-c3ccc(C)cc3)c(C)n3c4c(=O)n(C)c(=O)n(C)c4nc23)cc1 -0.0123%
COc1ccc(-c2cc(-c3ccc4c(c3)NC(=O)CO4)nc3c2COc2ccc(F)cc2-3)cc1 0.378%
CCN(CC)S(=O)(=O)c1ccc2c(c1)N(CC(=O)N1CCN(c3cccc(OC)c3)CC1)C(=O)CO2 -9.16%
CCOc1ccccc1CNC(=O)c1ccc2c(c1)nc1n2CCCCC1 23.5%
Cc1c(Nc2nc3ccccc3n3c(C)nnc23)cccc1C(=O)O -8.88%
Cc1ccc(Cl)cc1-n1ncc2c(NCCCc3ccccc3)ncnc21 -30%
CCc1ccc(NC(=O)c2ccc(F)c(S(=O)(=O)NCc3ccc(Cl)c(Cl)c3)c2)cc1 -37.4%
COc1ccc(Br)cc1CNC(=O)CCSCc1ccc(C)cc1 -20.2%
Cc1ccc(S(=O)(=O)N2CCN(Cc3nc4ccc(C)cc4o3)CC2)cc1 -18.7%
O=C(CS(=O)(=O)c1cccc2nsnc12)N1CCN(c2cccc(C(F)(F)F)c2)CC1 -27.4%
O=C(Cn1cc(S(=O)(=O)c2ccccc2)c(=O)c2cc3c(cc21)OCO3)Nc1ccc(Cl)cc1 -21.6%
CCNc1cc(N2CCN(C3CCCCC3)CC2)c2noc3c2c1C(=O)c1ccccc1-3 -9.83%
CSc1ccc(CCNC(=O)c2ccc(-c3nc(COc4ccc(C)cc4)c(C)o3)cc2)cc1 10%
O=C1NC(=O)C(=Cc2ccc3nccc(-c4ccncc4)c3c2)S1 -32.4%
CCOC(=O)CSc1nc2ccccc2c(=O)n1-c1cccc(C)c1 -7.94%
O=C(O)Cc1ccc(NC2(c3ccccc3)C(=O)c3ccccc3C2=O)cc1 -1.18%
COC(=O)c1ccccc1NC(=O)C1=C(C)C(=O)OC12CCCCCC2 -15.8%
COc1ccc(C(=O)Nc2ccccc2SCc2cc(=O)c3cccc(C)c3[nH]2)cc1 -2.99%
COc1ccc(S(=O)(=O)NCCS(=O)(=O)N2CCN(c3ccccc3)CC2)cc1C -23.8%
COc1ccc(N2CCN(Cc3cccn3-c3nnc(N4CCN(C5CCCCC5)CC4)s3)CC2)cc1 -22%
Cc1nc(SC(C)C(=O)Nc2ccccc2Cl)cc(-c2ccccc2)n1 (stereo not drawn) -30.7%
CCn1cc(C(=O)N2CCN(c3cc(C)ccc3C)CC2)c(=O)c2cc(S(=O)(=O)N3CCCCC3)ccc21 5.43% [at 11.5 µM, percent change from vehicle, -100% = no light]
CCOc1ccc(-n2nc(CO)c(C(=O)NCc3cccs3)n2)cc1 9.95%
Cc1ccc([N+](=O)[O-])cc1S(=O)(=O)N1CCn2cccc2C1c1ccccc1 (stereo not drawn) -19.2%
CC(Oc1ccc(Br)cc1)C(=O)Nc1ncn[nH]1 (stereo not drawn) -6.77%
COc1ccc(NC(=O)CCc2nnc3n(Cc4ccccc4Cl)c(=O)c4ccccc4n23)cc1 1.27%
Cc1ccc2nc(-c3ccc(Cl)c(NC(=O)COc4ccc(C(C)C)cc4)c3)oc2c1 18%
Cc1ccc(C)c(NC(=O)C2CCCN(S(=O)(=O)c3cn(C)cn3)C2)c1 (stereo not drawn) -0.768%
CC(N)C(=O)OC(C)(C)Cc1ccc(Cl)cc1 (stereo not drawn) -5.92%
Cc1ccc(N2C(=O)N(Cc3cc(=O)n4ccccc4n3)c3ccccc3S2(=O)=O)cc1Cl -31.3%
CCOc1ccccc1CNC(=O)Cn1cc2c(n1)-c1c(oc(C(=O)N3CCCC3)c1C)CC2 -39.8%
CN(CC=CC#CC(C)(C)C)Cc1cccc2ccccc12 14.4%
CCN(CC)CCNC(=O)COc1ccc(OC)cc1 -11.4%
COc1ccc(Cn2c(CO)cnc2SCc2ccc(F)cc2)cc1 -31.6%
CCc1ccc(Sc2cc(C(=O)O)c3ccccc3n2)cc1 5.25%
COc1ccc(-n2nc(C(=O)N(C)c3cc(Cl)ccc3OC)c3c4ccccc4n(C)c3c2=O)cc1 -1.26%
Cc1ccc(NC(=O)CC2Nc3cc(C)c(C)cc3NC2=O)c(C)c1 (stereo not drawn) -5.83%
CCOc1ccccc1NC(=O)C1=C(C)Nc2ncnn2C1c1ccc(NC(C)=O)cc1 (stereo not drawn) -14.8%
Cc1ccc(Cc2nc3ccccc3nc2SCC(=O)N2CCN(c3ccccc3)CC2)cc1 0.775%
COc1ccc(S(=O)(=O)c2nnn(-c3ccccc3F)c2C)cc1 -21.3%
Cc1nn(CCCC(=O)NCc2ccc(OC(C)C)cc2)c(=O)c2c1sc1ccccc12 -4.86%
N#CC1=C2SCN(C3CCCCC3)CN2C(=O)CC1c1c(F)cccc1Cl (stereo not drawn) -14.5%
COc1ccc(NC(=O)CSc2nc3ccccc3n2CC(=O)N2CCCCC2C)cc1 (stereo not drawn) -8.78%
COc1ccc(-c2onc(C)c2C)cc1S(=O)(=O)NCc1ccc(C)o1 -36.2%
COc1ccc(CCCc2nnc(SCC(=O)Nc3cccc(C)c3)o2)cc1 -2.21% [at 11.5 µM, percent change from vehicle, -100% = no light]
COc1ccc(-c2nc3ccc(C4=NNC(=O)CC4C)cc3[nH]2)cc1 (stereo not drawn) 12.2%
Cc1nn(CCC(=O)NCc2ccc(Cl)cc2)c(=O)c2nn(-c3ccccc3)c(C)c12 7.26%
Cc1ccc2[nH]cc(C(c3ccccc3)c3ccc(C)s3)c2c1 (stereo not drawn) -26.8%
CCC(C)NC(=O)CCc1c(C)nc2c(c(C)nn2-c2ccc(C)cc2)c1C (stereo not drawn) -9.68%
CCOc1cccc(CC(=O)NCc2ccc3c(c2)CCN3C(C)=O)c1OCC 3.98%
CCOC(=O)c1ccc(-c2ccc(/C=C(\C#N)c3nc4ccc(C)cc4[nH]3)o2)cc1 6.87%
COCC(C)NC(=O)c1cc2c(=O)n3cccc(C)c3nc2s1 (stereo not drawn) 16.8%
CCN(c1ccc(Cl)cc1)S(=O)(=O)c1nnc(NC(=O)c2ccccc2C)s1 -34.3%
CC(CNC(=O)C1CCN(C(=O)N2CCOc3ccc(Cl)cc32)CC1)c1ccccc1 (stereo not drawn) -16.5%
CC(C)(C)C1CCc2nc(NC(=O)c3ccc([N+](=O)[O-])cc3)sc2C1 (stereo not drawn) -33.2%
CC1Cn2c(C(=O)NCc3cccc(Br)c3)cc3cccc(c32)S1 (stereo not drawn) -11.5%
Cc1ccc(C(=O)O)cc1NC1(c2ccccc2)C(=O)c2ccccc2C1=O -2.51%
Cc1cccc(-c2nc3c(cnn3-c3ccccc3)c(=O)n2-c2ccc(Br)cc2)c1 9.29%
COc1ccc2oc(-c3ccc(C)c(NC(=O)c4ccc(-c5ccccc5[N+](=O)[O-])o4)c3)nc2c1 -27.1%
Cc1c(Cl)cccc1NC(=O)CSc1nc2ncccc2o1 -19%
C[C@@H]1[C@H](O)[C@@H](C)C=CC=CC=CC=CC=CC=CC=C[C@H](O[C@@H]2O[C@H](C)[C@H](O)[C@H](N)[C@@H]2O)C[C@@H]2O[C@](O)(C[C@@H](O)C[C@@H](O)[C@H](O)CC[C@@H](O)C[C@@H](O)CC(=O)O[C@H]1C)C[C@H](O)[C@@H]2C(=O)O -10.3%
COc1ccccc1CNC(=O)C1CCCN(c2nnc(C)c3c(C)n(-c4ccccc4)nc23)C1 (stereo not drawn) -9.53%
CC(=O)OCC1=C(C(=O)O)N2C(=O)[C@@H](NC(=O)Cc3cccs3)[C@H]2SC1 3.11%
